{
  "source": "the supplement of paper PMC10338343",
  "note": "± gives the standard deviation. This is a selection; strong and weak results do not stand in their true shares.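 Further: 1 nM active piRISC with 0.1 nM target library at 33 °C single turnover.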",
  "data": [
    {"system": "MIWI (PIWIL1) piRISC loaded with piRNA #1 (30 nt)", "assay": "pre-steady-state target cleavage rate (min^-1); MIWI and MILI are mouse PIWI proteins and EfPiwi is from a freshwater sponge; tags in brackets are library labels; higher = faster piRNA-guided slicing of the target", "conditions": "guide: piRNA #1 5'p-UGAGGUAGUAGGUUGUAUAGUAUCCAGAGG; auxiliary factor: 500 nM mouse GTSF1", "method_in_brief": "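A transcribed, DNA-blocked target RNA library […] was incubated at 33 °C for 0–8 or 0–960 min with 1 nM active affinity-purified piRISC carrying one synthetic guide, in HEPES–potassium acetate buffer with or without 500 nM GTSF1 partner protein. Uncleaved targets were then sequenced and normalised to depth and to weakly complementary targets. Data from three trials were pooled, with k3 capped at 0.0001 min^-1, and a burst-and-steady-state fit yielded the pre-steady-state cleavage rate.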", "values": [
      {"sequence": "GGACUGGAUACUUUACAACCUACAACCUCA", "pre-steady-state target cleavage rate": "0.0548 ± 0.011"},
      {"sequence": "GGAGAGGAUCUAUACAACCUACUACCUCA", "pre-steady-state target cleavage rate": "1.59 ± 0.09"},
      {"sequence": "GCUCUGGAUACUAUACAACGUACUACCUGA", "pre-steady-state target cleavage rate": "0.623 ± 0.056"},
      {"sequence": "GGUGUGGAUACUAUACAACGUACUACCUCA", "pre-steady-state target cleavage rate": "0.718 ± 0.041"},
      {"sequence": "GGAGACCUAUCUAUACAUCCUACUACGUCA", "pre-steady-state target cleavage rate": "0.221 ± 0.024"},
      {"sequence": "GGAGACCUAAGUAUUCAACCUACUACCUCA", "pre-steady-state target cleavage rate": "0.00289 ± 0.0023"},
      {"sequence": "GCUCUGGAUACUAAUACAACCUACUACCUCA", "pre-steady-state target cleavage rate": "1.49 ± 0.09"},
      {"sequence": "GGAGACCUAACUAUACAACGUACUACGUCA", "pre-steady-state target cleavage rate": "0.179 ± 0.037"},
      {"sequence": "GGAGACCUUACUAUACAACCUACUAGGAGA [g6:g22:cont:t1A]", "pre-steady-state target cleavage rate": "0.0657 ± 0.013"},
      {"sequence": "GCUCUGGAUACUAUACAUCCUACUACCACA", "pre-steady-state target cleavage rate": "1.61 ± 0.1"},
      {"sequence": "GGUCUGGAUACUAUAGAAGCUACUACCUCA", "pre-steady-state target cleavage rate": "0.261 ± 0.029"},
      {"sequence": "GGACUGGAUACUAUCAACCUACUACCUCA", "pre-steady-state target cleavage rate": "1.54 ± 0.13"},
      {"sequence": "GGAGACCUAUGAUAUGUUCCUACUAACUCA", "pre-steady-state target cleavage rate": "< 0.0001"},
      {"sequence": "GGACUGGAUACUAUACAACCUACUACCCCA", "pre-steady-state target cleavage rate": "0.494 ± 0.086"},
      {"sequence": "GGAGACGAUACUUUUCAACCUACUACCUCA", "pre-steady-state target cleavage rate": "0.957 ± 0.073"},
      {"sequence": "GGUCUGGAUACUAUACAAGCUACUUCCUCA", "pre-steady-state target cleavage rate": "0.581 ± 0.05"},
      {"sequence": "GGACAGGAUACUAUACAACCUACAACCUCA", "pre-steady-state target cleavage rate": "0.331 ± 0.037"},
      {"sequence": "GGAGACCUAACUAUACAACUUACUACCUCA", "pre-steady-state target cleavage rate": "0.25 ± 0.018"},
      {"sequence": "CCUCUGGAAACUAUACAACCUACUAGCUCA", "pre-steady-state target cleavage rate": "1.21 ± 0.13"},
      {"sequence": "CCUCUGGAUACUAUACAACCUACUGCCUCA", "pre-steady-state target cleavage rate": "1.61 ± 0.1"},
      {"sequence": "GGAGACCUUACUAUACAACCUUCUACCACA", "pre-steady-state target cleavage rate": "0.536 ± 0.045"},
      {"sequence": "GGAGACCUAUCUAUACAAGCUACUACCACA", "pre-steady-state target cleavage rate": "0.48 ± 0.039"},
      {"sequence": "GGAGACCAAACUAUACAACCUACUACCUGA", "pre-steady-state target cleavage rate": "0.641 ± 0.1"},
      {"sequence": "GGAGUGCAUACUAUACAAGCUACUACCUCA", "pre-steady-state target cleavage rate": "0.898 ± 0.04"},
      {"sequence": "GGAGUCGAUUCUAUACAACCUACUACCUCA", "pre-steady-state target cleavage rate": "1.59 ± 0.097"},
      {"sequence": "GGUCUGGAUACUAUAGCAACCUACUACCUCA", "pre-steady-state target cleavage rate": "1.13 ± 0.12"},
      {"sequence": "GCUGUGGAUACUAUACAUCCUACUACCUCA", "pre-steady-state target cleavage rate": "1.61 ± 0.092"},
      {"sequence": "GGAGAGGAUACUAUACAACGUUCUACCUCA", "pre-steady-state target cleavage rate": "0.0791 ± 0.0075"},
      {"sequence": "GGUCUGGAUACUAUACAACCUACUACCUCU [g2:g28:cont:t1U]", "pre-steady-state target cleavage rate": "1.59 ± 0.11"},
      {"sequence": "GGAGACCUAUGUAUACAACCUACUAGCUCA", "pre-steady-state target cleavage rate": "0.0329 ± 0.0067"},
      {"sequence": "GGAGACCUAACUAUUCAACGUACUACCUCA", "pre-steady-state target cleavage rate": "0.0402 ± 0.014"},
      {"sequence": "GGAGACCUAACUAUACAACCUGCUACCUCA", "pre-steady-state target cleavage rate": "0.447 ± 0.044"},
      {"sequence": "GGACUGGAUAGUAUACAACCUACUACCUGA", "pre-steady-state target cleavage rate": "0.284 ± 0.05"},
      {"sequence": "GGAGACCAUACUAUACAUCCUUCUACCUCA", "pre-steady-state target cleavage rate": "0.273 ± 0.019"},
      {"sequence": "GGAGUGGAUACUAUACAACCUACUACCUCC [g2:g26:cont:t1C]", "pre-steady-state target cleavage rate": "1.21 ± 0.065"},
      {"sequence": "GGAGACCAAUCUAUACAACCUACUACCUCA", "pre-steady-state target cleavage rate": "1.04 ± 0.087"},
      {"sequence": "CCUCUGGAUUCUAUAGAACCUACUACCUCA", "pre-steady-state target cleavage rate": "0.834 ± 0.053"},
      {"sequence": "GGUCUGGAUACUUUACAACCUACUACCUCA", "pre-steady-state target cleavage rate": "1.76 ± 0.11"},
      {"sequence": "GGUCUGGAUACUAUACAACCUAACUACCUCA", "pre-steady-state target cleavage rate": "0.0183 ± 0.0029"}
    ]}
  ]
}
